According to publication PMC4336329 (PLoS ONE, 2015):
About 2,200 (0.71%) of roughly 310,000 compounds showed an effect of 50% or more. Effects have a minus sign here. The list shows a part of the results.

Target: human ether-à-go-go-related gene (hERG) potassium channel (human, UniProt Q12809)
Test: primary screen, population patch clamp on CHO cells stably expressing hERG

human ether-à-go-go-related gene (hERG) potassium channel, sequence (Q12809 whole entry, looked up): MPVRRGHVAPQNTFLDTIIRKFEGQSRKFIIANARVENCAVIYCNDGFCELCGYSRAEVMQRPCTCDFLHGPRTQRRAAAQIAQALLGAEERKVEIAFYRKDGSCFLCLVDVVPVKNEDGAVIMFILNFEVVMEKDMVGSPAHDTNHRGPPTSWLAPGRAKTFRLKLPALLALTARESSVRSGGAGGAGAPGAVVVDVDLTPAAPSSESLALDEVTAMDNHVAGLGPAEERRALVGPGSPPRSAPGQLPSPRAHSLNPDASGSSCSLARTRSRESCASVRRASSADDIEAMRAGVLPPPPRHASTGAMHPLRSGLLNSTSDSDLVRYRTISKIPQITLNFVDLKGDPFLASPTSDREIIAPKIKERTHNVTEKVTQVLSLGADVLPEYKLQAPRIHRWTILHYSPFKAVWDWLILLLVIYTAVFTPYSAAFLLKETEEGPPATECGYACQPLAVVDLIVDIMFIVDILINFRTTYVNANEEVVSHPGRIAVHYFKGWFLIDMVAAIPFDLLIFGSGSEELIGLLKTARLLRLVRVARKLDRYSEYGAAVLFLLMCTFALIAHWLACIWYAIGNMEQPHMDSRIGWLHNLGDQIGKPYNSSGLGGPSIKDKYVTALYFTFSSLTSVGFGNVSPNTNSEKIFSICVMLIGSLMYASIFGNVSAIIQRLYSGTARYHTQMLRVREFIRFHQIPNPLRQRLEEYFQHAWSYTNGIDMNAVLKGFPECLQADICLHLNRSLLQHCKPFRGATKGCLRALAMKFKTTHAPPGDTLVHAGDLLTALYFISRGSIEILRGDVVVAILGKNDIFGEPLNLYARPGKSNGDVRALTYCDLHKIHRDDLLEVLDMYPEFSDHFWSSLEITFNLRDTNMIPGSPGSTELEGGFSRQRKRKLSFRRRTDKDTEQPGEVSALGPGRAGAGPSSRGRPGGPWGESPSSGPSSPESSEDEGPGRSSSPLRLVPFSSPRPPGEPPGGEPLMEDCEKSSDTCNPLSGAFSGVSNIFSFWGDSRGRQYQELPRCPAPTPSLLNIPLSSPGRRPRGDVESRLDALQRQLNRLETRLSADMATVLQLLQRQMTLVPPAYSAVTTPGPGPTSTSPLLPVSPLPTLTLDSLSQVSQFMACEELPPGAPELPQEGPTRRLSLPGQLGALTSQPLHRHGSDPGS

Question: For `NC(=O)COc1cccc2cccnc12`, which “hERG current change (%, negative = inhibition) at 1uM” value is on record?
Answer: 10.8%

Question: How did the “hERG current change (%, negative = inhibition) at 1uM” value turn out when `COc1ccc2oc(=O)c(C(=O)NCc3ccc4c(c3)OCO4)cc2c1` was run?
Answer: 15.6%

Question: Which “hERG current change (%, negative = inhibition) at 1uM” value does the source give for `O=C(C[n+]1ccccc1)N/N=C/c1ccc(Cl)cc1.[Cl-]` here?
Answer: 3.27%

Question: Which “hERG current change (%, negative = inhibition) at 1uM” value does the source give for `CCCC(=O)Nc1ccc2c(c1)nc(CN1CCN(C(=O)OCC)CC1)n2CC` here?
Answer: 15.5%

Question: How did the “hERG current change (%, negative = inhibition) at 1uM” value turn out when `O=C(NCc1ccccc1)c1cc(-c2ccncc2)nc2ccccc12` was run?
Answer: -0.566%

Question: How did the “hERG current change (%, negative = inhibition) at 1uM” value turn out when `COc1cc(CC(=O)N2C[C@H]3C[C@@H](C2)c2cccc(=O)n2C3)cc(OC)c1OC` was run?
Answer: 9.36%

Question: With `O=C(NNC(=O)c1ccc2[nH]c(=O)c(=O)[nH]c2c1)c1cccc(Br)c1` as the compound, how does the “hERG current change (%, negative = inhibition) at 1uM” value read?
Answer: 15.5%

Question: For `COc1ccc(NC(=O)CSc2nc3ccccc3nc2N2CCCCC2)cc1`, which “hERG current change (%, negative = inhibition) at 1uM” value is on record?
Answer: 12.6%

Question: With `C=CCn1cccc(C(=O)Nc2ccc(F)cc2)c1=O` as the compound, how does the “hERG current change (%, negative = inhibition) at 1uM” value read?
Answer: 5.42%

Question: Which “hERG current change (%, negative = inhibition) at 1uM” value does the source give for `Cc1ccc(S(=O)(=O)N(C)C)cc1NC(=O)COC(=O)CCC1CCCCC1` here?
Answer: 11.1%

Question: How did the “hERG current change (%, negative = inhibition) at 1uM” value turn out when `CN(C)/C=C(\C=O)c1onc(-c2ccccc2Cl)c1C#N` was run?
Answer: 8.9%

Question: With `Cn1c(=O)cc(SCC(=O)NCc2cccnc2)c2ccccc21` as the compound, how does the “hERG current change (%, negative = inhibition) at 1uM” value read?
Answer: 1.31%

Question: `Cc1c(CCC(=O)O)c(=O)oc2cc3occ(-c4ccccc4)c3cc12` was tested. Which “hERG current change (%, negative = inhibition) at 1uM” value did it give?
Answer: -4.07%

Question: `Cc1cccc(N2CCN(C(=O)CSCc3c(C)noc3C)CC2)c1C` was tested. Which “hERG current change (%, negative = inhibition) at 1uM” value did it give?
Answer: 6.62%

Question: Which “hERG current change (%, negative = inhibition) at 1uM” value does the source give for `CCN(CC(=O)Nc1c(F)cccc1F)C(=O)c1cccnc1Sc1ccccc1` here?
Answer: 12.9%

Question: Which “hERG current change (%, negative = inhibition) at 1uM” value does the source give for `CC1CCCCC1NC(=O)c1cc(S(=O)(=O)N2CCCCC2)ccc1N1CCOCC1` (centres unmarked) here?
Answer: 11.1%

Question: With `CCC1=NN(C(=O)COc2ccccc2)C(O)(c2ccc(Br)cc2)C1` (centres unmarked) as the compound, how does the “hERG current change (%, negative = inhibition) at 1uM” value read?
Answer: 5.87%

Question: For `COc1ccc(-c2noc(CCC(=O)N3CCN(c4cccc(C(F)(F)F)c4)CC3)n2)cc1`, which “hERG current change (%, negative = inhibition) at 1uM” value is on record?
Answer: 14.3%

Question: With `Cc1cc(C)c(C#N)c(SCc2ccccc2C)n1` as the compound, how does the “hERG current change (%, negative = inhibition) at 1uM” value read?
Answer: 14.1%

Question: `COC(=O)c1c(NC(=O)CSc2nnc(C)c(=O)[nH]2)sc(C)c1C` was tested. Which “hERG current change (%, negative = inhibition) at 1uM” value did it give?
Answer: 17.9%

Question: How did the “hERG current change (%, negative = inhibition) at 1uM” value turn out when `COC(=O)C1CSC(C(=O)OC)N1C(=O)CN1CCN(c2ccc(OC)cc2)CC1` (centres unmarked) was run?
Answer: 10.7%

Question: `Br.COc1ccc(-c2nc(NC3=NCCCCC3)sc2C)cc1` was tested. Which “hERG current change (%, negative = inhibition) at 1uM” value did it give?
Answer: -1.4%

Question: Which “hERG current change (%, negative = inhibition) at 1uM” value does the source give for `Nc1nc(CCl)nc(Nc2cccc3ccccc23)n1` here?
Answer: 11.6%

Question: How did the “hERG current change (%, negative = inhibition) at 1uM” value turn out when `Cn1c(=O)[nH]c(=O)c2c1nc(N1CCNCC1)n2Cc1cccc2ccccc12` was run?
Answer: 0.397%

Question: Which “hERG current change (%, negative = inhibition) at 1uM” value does the source give for `Cc1ccc(C)c(NC(=O)C2COc3ccccc3O2)c1` (centres unmarked) here?
Answer: 20.8%

Question: For `CC(NC(=O)N(Cc1ccccc1)Cc1ccc2c(c1)OCO2)(C(F)(F)F)C(F)(F)F`, which “hERG current change (%, negative = inhibition) at 1uM” value is on record?
Answer: 8.68%

Question: For `Cn1c(=O)c(=O)n(C)c2cc(S(=O)(=O)N3CCN(C4CCCCC4)CC3)ccc21`, which “hERG current change (%, negative = inhibition) at 1uM” value is on record?
Answer: 10.9%

Question: Which “hERG current change (%, negative = inhibition) at 1uM” value does the source give for `CCCN(CCC)S(=O)(=O)c1ccc(NC(=O)C2CCCO2)cc1` (centres unmarked) here?
Answer: 0.598%

Question: With `O=C(NCc1n[nH]c(=S)n1-c1cccc(C(F)(F)F)c1)c1ccco1` as the compound, how does the “hERG current change (%, negative = inhibition) at 1uM” value read?
Answer: 14%

Question: Which “hERG current change (%, negative = inhibition) at 1uM” value does the source give for `CC(C)(C)n1ncc2c(=O)n(CC(=O)Nc3ccc(Cl)cc3)cnc21` here?
Answer: 8.44%

Question: Which “hERG current change (%, negative = inhibition) at 1uM” value does the source give for `CCn1cnc2sc(C(=O)Nc3ccc4c(c3)OCO4)c(C)c2c1=O` here?
Answer: 12.5%

Question: `c1ccc2c(-c3nc(C4CCCCC4)no3)cc(-c3ccncc3)nc2c1` was tested. Which “hERG current change (%, negative = inhibition) at 1uM” value did it give?
Answer: 0.455%

Question: For `CCN(CC)CC#CCC(O)(c1ccccc1)c1ccccc1`, which “hERG current change (%, negative = inhibition) at 1uM” value is on record?
Answer: 8.71%

Question: With `Cc1nc2ccccn2c1C(=O)NC1CCCC1` as the compound, how does the “hERG current change (%, negative = inhibition) at 1uM” value read?
Answer: 13.2%

Question: For `Cc1ccc2nc(C)cc(NCCO)c2c1.Cl`, which “hERG current change (%, negative = inhibition) at 1uM” value is on record?
Answer: 7.24%

Question: How did the “hERG current change (%, negative = inhibition) at 1uM” value turn out when `COc1ccc(OCC(=O)Nc2ccc3c(c2)C(=O)NC3=O)cc1` was run?
Answer: 12.5%

Question: How did the “hERG current change (%, negative = inhibition) at 1uM” value turn out when `Cc1ccc(S(=O)(=O)N2CCN(Cc3cccc(C)c3O)CC2)cc1` was run?
Answer: 16%

Question: `Nc1c(C=C2C=CC(=O)C=C2)c(=O)nc2sc(CC(=O)N3CCCC3)nn12` was tested. Which “hERG current change (%, negative = inhibition) at 1uM” value did it give?
Answer: -1.3%

Question: Which “hERG current change (%, negative = inhibition) at 1uM” value does the source give for `Cc1ccc(C(=O)NCC(=O)OCCCOC(=O)CNC(=O)c2ccc(C)cc2)cc1` here?
Answer: 7.55%

Question: How did the “hERG current change (%, negative = inhibition) at 1uM” value turn out when `Cc1ccc(CNc2ccc3c(c2)ncn3C(C)C)cc1` was run?
Answer: -15.8%

Question: For `CSc1cccc(NC(=S)N2CCC(N(C)C3CCCCC3)CC2)c1`, which “hERG current change (%, negative = inhibition) at 1uM” value is on record?
Answer: -26.2%

Question: Which “hERG current change (%, negative = inhibition) at 1uM” value does the source give for `O=C1CCCN1CC(O)CS(=O)(=O)c1ccc(Cl)cc1` (centres unmarked) here?
Answer: 19.1%

Question: How did the “hERG current change (%, negative = inhibition) at 1uM” value turn out when `Cc1ccc(-c2nc(CN(C)Cc3ccc4nccnc4c3)c(C)o2)s1` was run?
Answer: 2.63%

Question: Which “hERG current change (%, negative = inhibition) at 1uM” value does the source give for `COc1ccc(C2C3=C(CC(C)(C)CC3=O)N(C)C3=C2C(=O)CC(C)(C)C3)cc1OC` here?
Answer: 19.1%

Question: `NC(=O)C1CC(=O)N(c2ccc(OCc3ccc(Cl)cc3Cl)cc2)C1` (centres unmarked) was tested. Which “hERG current change (%, negative = inhibition) at 1uM” value did it give?
Answer: 4.16%

Question: `O=C(NCC1CCCO1)c1ccc(COCC(F)(F)C(F)F)cc1` (centres unmarked) was tested. Which “hERG current change (%, negative = inhibition) at 1uM” value did it give?
Answer: 2.38%

Question: `Cc1ccc(S(=O)(=O)Cn2nnnc2C(c2ccc(F)cc2)N2CCC(C(N)=O)CC2)cc1` (centres unmarked) was tested. Which “hERG current change (%, negative = inhibition) at 1uM” value did it give?
Answer: -3.18%

Question: For `O=C1C(Cl)=C(NCC2CCCO2)C(=O)N1C1CCCCC1` (centres unmarked), which “hERG current change (%, negative = inhibition) at 1uM” value is on record?
Answer: 10%

Question: `O=C(/C=C/c1ccccc1)c1cc(Br)ccc(=O)c1O` was tested. Which “hERG current change (%, negative = inhibition) at 1uM” value did it give?
Answer: 0.55%

Question: Which “hERG current change (%, negative = inhibition) at 1uM” value does the source give for `CCc1nnc(NC(=O)c2cc(S(=O)(=O)N(CC)CC)ccc2Cl)s1` here?
Answer: -1.93%

Question: How did the “hERG current change (%, negative = inhibition) at 1uM” value turn out when `COc1cc(C(=O)OCC(=O)Nc2sccc2C(N)=O)cc(OC)c1OC` was run?
Answer: 21%

Question: Which “hERG current change (%, negative = inhibition) at 1uM” value does the source give for `CCn1c(=O)cc(SCC(=O)N2CCN(C(=O)c3ccco3)CC2)c2ccccc21` here?
Answer: 9.43%

Question: Which “hERG current change (%, negative = inhibition) at 1uM” value does the source give for `NC(=O)C1CCCN(C(=O)c2ccc(S(=O)(=O)N3CCCCCC3)cc2)C1` (centres unmarked) here?
Answer: 6.46%

Question: `CCOC(=O)c1oc2ccccc2c1COC(=O)CNC(=O)c1ccc(C)cc1` was tested. Which “hERG current change (%, negative = inhibition) at 1uM” value did it give?
Answer: -3.59%

Question: For `CC(C)OCCCN(C)C1CCN(S(=O)(=O)c2ccc(-c3ccc(=O)[nH]n3)s2)CC1`, which “hERG current change (%, negative = inhibition) at 1uM” value is on record?
Answer: 1.13%

Question: `CCOc1ccc(C(C)=O)cc1N1C(=O)C2C3C=CC(C3)C2C1=O` (centres unmarked) was tested. Which “hERG current change (%, negative = inhibition) at 1uM” value did it give?
Answer: 6.73%
